Results from PMC4336329 (PLoS ONE, 2015).
In all, about 310,000 compounds went through this assay and about 2,200 (0.71%) showed an effect of 50% or more. The effect is printed as a negative number. Some of the results follow.

Molecular target: human ether-à-go-go-related gene (hERG) potassium channel (human, UniProt Q12809)
Assay: primary screen, population patch clamp on CHO cells stably expressing hERG

Chain of human ether-à-go-go-related gene (hERG) potassium channel (Q12809 whole entry, looked up): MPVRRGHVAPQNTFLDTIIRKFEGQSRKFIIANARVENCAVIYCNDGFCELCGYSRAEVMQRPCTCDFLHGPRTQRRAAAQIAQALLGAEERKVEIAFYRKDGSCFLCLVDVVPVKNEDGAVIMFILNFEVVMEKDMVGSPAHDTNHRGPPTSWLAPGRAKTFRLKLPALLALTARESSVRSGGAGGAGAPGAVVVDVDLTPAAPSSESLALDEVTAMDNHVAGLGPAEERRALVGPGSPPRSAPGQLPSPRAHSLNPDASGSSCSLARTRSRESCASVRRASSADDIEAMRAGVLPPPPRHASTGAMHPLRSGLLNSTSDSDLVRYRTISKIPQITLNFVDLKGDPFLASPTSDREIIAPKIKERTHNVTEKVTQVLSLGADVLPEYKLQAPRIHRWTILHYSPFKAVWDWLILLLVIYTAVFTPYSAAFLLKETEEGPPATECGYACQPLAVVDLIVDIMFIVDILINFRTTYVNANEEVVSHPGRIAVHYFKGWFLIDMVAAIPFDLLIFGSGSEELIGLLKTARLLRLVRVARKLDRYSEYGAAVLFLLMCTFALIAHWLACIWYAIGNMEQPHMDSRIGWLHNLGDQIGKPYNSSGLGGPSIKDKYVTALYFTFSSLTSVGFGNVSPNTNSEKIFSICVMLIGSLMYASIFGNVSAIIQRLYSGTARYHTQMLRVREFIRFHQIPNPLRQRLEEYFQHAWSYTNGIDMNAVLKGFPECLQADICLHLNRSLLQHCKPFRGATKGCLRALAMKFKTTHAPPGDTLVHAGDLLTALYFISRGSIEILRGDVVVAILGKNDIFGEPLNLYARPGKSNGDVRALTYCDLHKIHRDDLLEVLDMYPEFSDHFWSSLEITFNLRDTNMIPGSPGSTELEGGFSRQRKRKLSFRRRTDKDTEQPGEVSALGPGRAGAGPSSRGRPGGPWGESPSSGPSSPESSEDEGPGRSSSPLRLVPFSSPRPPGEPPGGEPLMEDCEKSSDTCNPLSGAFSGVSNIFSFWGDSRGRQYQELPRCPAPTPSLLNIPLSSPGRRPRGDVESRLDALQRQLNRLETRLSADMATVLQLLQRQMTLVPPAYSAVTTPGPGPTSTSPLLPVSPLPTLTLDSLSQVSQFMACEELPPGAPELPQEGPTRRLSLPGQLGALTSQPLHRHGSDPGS

SMILES | hERG current change (%, negative = inhibition) at 1uM [%]
O=C(CSc1nnc(CNC(=O)C23CC4CC(CC(C4)C2)C3)n1-c1ccccc1)Nc1ccc(F)cc1 | 7.62
CS(=O)(=O)N(CCC#N)Cc1ccco1 | 15.2
CC(=O)NCCn1c(C)cc2ccccc21 | -28
O=c1c(Cc2ccc(F)cc2)c(O)ccn1CCc1cnc[nH]1 | 11
COc1ccc(C(=O)Nc2scc(-c3ccc(Cl)cc3Cl)c2C(N)=O)cc1 | 10.2
O=C(COc1ccc([N+](=O)[O-])cc1)NCc1ccncc1 | -4.5
O=C(CNC(=O)c1ccc(Br)o1)NNC(=O)c1ccc(Br)cc1 | -19.6
Fc1cccc(Cn2cc(C(=S)N3CCOCC3)c3ccccc32)c1 | -1.89
CNC(=S)NNC(=O)CSCc1c(Cl)cccc1Cl | 17.1
COc1ccc(C(=O)NCC(=O)N2CCc3ccccc3C2)cc1 | 8.72
NC(=O)c1ccccc1NC(=O)c1cccc(C(=O)Nc2ccccc2C(N)=O)n1 | 13
CCCC(=O)Nn1cnc2c(c1=O)C1(CCCC1)Cc1ccccc1-2 | 5.41
O=C1CCCC/C1=C/Nc1ccc(C(=O)O)cc1 | -6.63
CCn1c(-c2ccc(C)cc2)n[nH]c1=S | 12
CCN(CC)CCN(C(=O)c1cccc([N+](=O)[O-])c1)c1nc2ccc(OC)cc2s1.Cl | -9.58
COc1ccc2c(c1)cc(C(=O)N[C@@H](CCSC)C(=O)N1CCC[C@H]1C(=O)O)n2C | -6.66
Cc1ccc(NC(=S)Nc2cccc3cnccc23)cc1 | 0.785
Cc1nnc(N/N=C/c2ccc([N+](=O)[O-])cc2)n1N | 12
CCCc1ccc(Oc2cc(N3CCOCC3)nc(-c3ccccc3)n2)cc1 | 15.7
Cc1cc(-n2[nH]c(C)c(C)c2=O)nc(-c2ccccc2O)n1 | 12.8
Cc1c(C(=O)N2CCOCC2)sc(NC(=O)CCl)c1C#N | 6.58
Cc1cccc(N(Cc2nnc3n2CCCCC3)C(=O)Nc2ccccc2)c1 | 1.47
Cc1cc2ccccc2n1CCNC(=O)Cc1ccccc1 | 2.53

SMILES | hERG current change (%, negative = inhibition) at 1uM [%]
Oc1c(Cl)cc(CN2CCCCC2)c2cccnc12 | 13.1
COCCn1c(SCC(=O)N2CCCCC2)nc2ccccc2c1=O | -30.8
CCOc1cccc(CNCCSc2nnnn2C)c1.Cl | 13.8
Cc1cc(C)c(C(=O)CSc2nnc(-c3cccnc3)n2C)c(C)c1 | -12.5
O=C(OCCCc1cc2ccccc2c(=O)o1)c1ccccc1C(F)(F)F | 19.3
COC(=O)C1C(=O)C2=C(CC1C)NC(C)=C(C(=O)OCc1ccc(OC)cc1)C2c1ccc(C)o1 (stereo not drawn) | 0.03
COc1cccc(-c2nc(CS(=O)(=O)CC(=O)NCCc3ccccc3)c(C)o2)c1 | 7.01
CCOc1ccc(CCNC(=O)CN2C(=O)COc3ccc(S(=O)(=O)N4CCOCC4)cc32)cc1 | -8.18
COCCNC(=O)C(c1ccc(F)cc1)N(Cc1ccco1)C(=O)CCC(=O)Nc1ccccn1 (stereo not drawn) | 11.6
O=C1C(=O)c2ccccc2C(O)=C1c1ccccc1F | 10.6
O=C(Nc1nccs1)c1ccc(-c2ccc(Cl)cc2Cl)o1 | 20.3
CCN1CCN(C(=O)Nc2ccc(Cc3ccc(NC(=O)N4CCN(CC)CC4)cc3)cc2)CC1 | 11.5
Nc1ccc2c(c1)COc1ccccc1O2 | -6.6
CC(=O)c1cnc(Nc2nc(C)c3ccccc3n2)nc1C | 20.4
CC(NC(=O)Cc1ccccc1)C(=O)O (stereo not drawn) | 9.38
COc1cc(OC)nc(Oc2ccccc2C(=O)Oc2ccc(F)cc2Cl)n1 | 9.4
CCOc1cc(C(=O)NCCN2CCOCC2)cc(OCC)c1OCC | 9.12
CCC(C(=O)OCC(=O)c1ccc2c(c1)NC(=O)CO2)c1ccccc1 (stereo not drawn) | 10.9
CCOC(=O)C1=C(Nc2ccccc2)OCC1=O | 13.9
Cc1ccc(C(=O)Nc2cc(Cl)ccc2OC(=O)c2ccc(C)cc2)cc1 | 7.95
CCOC(=O)c1c(C)[nH]c(=S)c(C#N)c1-c1ccc(Cl)cc1 | 20.3
Cn1ccnc1SCCC#N | 5.67
O=C1NC(=O)/C(=C\c2ccc(OCc3cccc(C(=O)O)c3)c(Cl)c2)N1 | 16.8

SMILES | hERG current change (%, negative = inhibition) at 1uM [%]
Cc1cc(C)nc(N2Cc3ccccc3C2=N)n1 | 2.4
CCN(CC)S(=O)(=O)c1ccc(C)c(NC(=O)COc2ccc(Br)cc2Cl)c1 | 14.5
CC(C)Nc1nc2c(c(=O)n(C)c(=O)n2C)n1C | -1.81
Cc1cc(C)c(C(=O)C(C)OC(=O)Cn2cnc3c2c(=O)n(C)c(=O)n3C)cc1C (stereo not drawn) | 5.21
Cc1cc(NC(=O)c2cc(-c3cccs3)on2)nn1Cc1ccc(Cl)cc1 | -0.686
Cc1nc2sc(C(c3ccco3)N3CCC(Cc4ccccc4)CC3)c(O)n2n1 (stereo not drawn) | 2.11
Cc1noc(NS(=O)(=O)c2ccc(NC(=O)c3cnc4scc(C)n4c3=O)cc2)c1C | 9.16
C=C(C)c1cccc(C(C)(C)NC(=O)NCc2ccc(OC)c(OC)c2)c1 | 13.8
O=C(O)C1C2CCC(C2)C1C(=O)NCCCn1ccnc1 (stereo not drawn) | 3.96
COc1cc(OC)cc(C(=O)N[C@H](C(=O)NCc2ccco2)C(C)C)c1 | 10.7
O=C(O)c1cc2nc(-c3ccc(F)cc3)cc(C(F)(F)F)n2n1 | 6.47
CC(C)c1nnc(NC(=O)C2CC(=O)N(CCc3ccc(F)cc3)C2)s1 (stereo not drawn) | 7.69
Cc1ccc(S(=O)(=O)N(C)CC(=O)Nc2ncccc2C)cc1 | 17.2
CCC(C)(C)n1nnnc1C(c1ccc2ncccc2c1)N1CCN2CCCC2C1 (stereo not drawn) | 8.16
Cc1ccc(C(=O)C(C)N2C(=O)NC(C)(c3ccccc3)C2=O)cc1 (stereo not drawn) | 4.77
COc1cc(CCC(=O)Nc2cccc(S(=O)(=O)N(C)C)c2)cc(OC)c1OC | 2.25
COc1ccc(CNC(=O)CN(C)S(=O)(=O)c2ccc(Cl)cc2)cc1 | 9.54
O=C(CN1C(=O)C(=O)N(C2CCCC2)C1=O)Nc1ccc(OC(F)F)cc1 | 11.8
CCOC(=O)N1CCN(CC(O)COc2cc(C)cc(C)c2)CC1.Cl (stereo not drawn) | 11.5
O=C(/C=C/c1ccc2ccccc2n1)c1cc(Br)ccc1O | 7.46
Fc1cccc(F)c1-n1c(CN2CCOCC2)csc1=S | 13.1
COc1ccc(OC(=O)c2c(C)nn(-c3ccccc3)c2C)cc1 | 11.9
O=C(O)CNc1nc(Cl)ccc1[N+](=O)[O-] | 12.3

SMILES | hERG current change (%, negative = inhibition) at 1uM [%]
COc1cccc(-n2c(-c3ccco3)nc3nc4ccccc4nc32)c1 | 8.23
CSCCC(NC(=O)OCc1ccccc1)C(=O)O (stereo not drawn) | 11.2
CC(=O)C1C(c2cn(-c3ccccc3)nc2-c2cccs2)NC(=O)NC1(O)C(F)(F)F (stereo not drawn) | 16
COc1ccc(Cl)cc1NC(=O)/C=C/C(=O)O | 15
CC1CCCN(CC(O)COc2ccc3c(c2)OCO3)C1.Cl (stereo not drawn) | -0.262
COC(=O)[C@H](Cc1ccccc1)N(C)S(=O)(=O)c1cccc(S(=O)(=O)N(C)[C@@H](Cc2ccccc2)C(=O)OC)c1 | 13.5
COc1ccc(NC(=O)CSc2nnc(-c3ccccn3)n2N)cc1 | 17.1
Cc1ccc(-c2nnn(CC(=O)N(c3ccc(F)cc3)C(C(=O)NC3CCCC3)c3ccncc3)n2)o1 (stereo not drawn) | 13.8
Cc1ccc(NC(=S)NN(C)c2cc(C)nc(C)n2)cc1 | 16.9
O=C(NC1CC(=O)N(c2ccc(F)cc2)C1)C(=O)c1c[nH]c2ccccc12 (stereo not drawn) | -0.55
COc1cccc(CC(=O)Nc2cc(S(=O)(=O)N3CCOCC3)ccc2N2CCOCC2)c1 | 4.37
CCOCc1c(C(=O)OCC(=O)/C(C#N)=C(\C)N)oc2ccccc12 | 5.04
CCN(CC)CCCNC(=O)Cn1ccc2ccccc2c1=O | -1.84
COc1ccc(CNC(=O)C2CCCC2)cc1 | 13.3
COc1ccc(Cc2nc3ccc(C(=O)NCc4cc(C)no4)cc3o2)cc1OC | -4.18
Nc1cc(=O)[nH]c(SCCSc2ccc(F)cc2)n1 | 12.9
Cc1ccc(C)c(N2CCN(C(=O)CCS(=O)(=O)c3ccc4c(c3)NC(=O)C(C)S4)CC2)c1 (stereo not drawn) | -0.397
CCOc1cc(NC(=S)NCc2ccco2)c(OCC)cc1NC(C)=O | 2.8
CCN(CCCn1c(=S)[nH]c2ccc(N3CCOCC3)cc2c1=O)c1ccccc1 | 5.86
CCCCCN(C(=O)CCC(=O)OCc1cccc(Br)c1)c1c(N)n(CCCC)c(=O)[nH]c1=O | 0.761
O=C(COC(=O)c1cc[n+]([O-])cc1)NCCc1ccc(Cl)cc1Cl | 7.99
